Consider 40 sequences from publication PMC12820563, “FoxP3 forms a head-to-head dimer in vivo and stabilizes its multimerization on adjacent microsatellites”.

Some of the results follow.

For the experiment, the target named is T1, MBP-FoxP1dN (Mus musculus, UniProt P58462 326-579).
T1 sequence: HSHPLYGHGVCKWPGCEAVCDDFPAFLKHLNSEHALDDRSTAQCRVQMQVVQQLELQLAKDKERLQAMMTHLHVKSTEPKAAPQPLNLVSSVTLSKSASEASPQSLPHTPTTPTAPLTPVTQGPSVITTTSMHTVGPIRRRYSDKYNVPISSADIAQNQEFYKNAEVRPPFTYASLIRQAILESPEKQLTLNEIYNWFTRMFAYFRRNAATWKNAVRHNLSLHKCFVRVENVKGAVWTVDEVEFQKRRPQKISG
Briefly: PD-seq (MBP pull-down with sequencing); 20 mM Tris-HCl pH 7.5, 100 mM NaCl, 1.5 mM MgCl2, 0.4 uM protein, 0.1 uM dsDNA library, 30 min, room temperature, amylose pull-down; high values mean tight binding. The settings on record: protein: recombinant; tags: His6-MBP; chain copies: 2; dsDNA, one strand shown. The procedure, abridged:
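The N-terminus-lacking fragment of mouse FoxP3 or FoxP1 carried a His6-MBP tag and was expressed in E. coli. At 0.4 µM it was incubated with 0.1 µM Klenow-filled degenerate double-stranded DNA library for 30 min at room temperature in Tris pH 7.5 buffer with NaCl and MgCl2, and complexes were caught on amylose resin, washed three times, released with proteinase K, PCR-barcoded and Illumina-sequenced. Binding is reads-per-million enrichment of pull-down over input with replicates pooled.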
As to “GATGATTGTTCTCCCAGCTGATGAATTAGTTAGTTCGAGTAAACAAATTTTCCTAATCTTTCTGTTCAAGCGCCATCTAC”, the binding signal was 0.968 RPM ratio (pull-down/input).

On to “GATGATTGTTCTCCCAGCTGATGAATTCATGGAGTCGAGTAAACAAATTTTCCTAATCTTTCTGTTCAAGCGCCATCTAC”, for which the binding signal is 0.818 RPM ratio (pull-down/input).

Turning to “GATGATTGTTCTCCCAGCTGATGAATTGATGGTTTCGAGTAAACAAATTTTCCTAATCTTTCTGTTCAAGCGCCATCTAC”, the binding signal is 1.01 RPM ratio (pull-down/input).

Regarding “GATGATTGTTCTCCCAGCTGATGAATTCTGGTTTTCGAGTAAACAAATTTTCCTAATCTTTCTGTTCAAGCGCCATCTAC”, the binding signal is 0.965 RPM ratio (pull-down/input).

With “GATGATTGTTCTCCCAGCTGATGAATTCGCGAAATCGAGTAAACAAATTTTCCTAATCTTTCTGTTCAAGCGCCATCTAC”, the binding signal is 1.01 RPM ratio (pull-down/input).

As to “GATGATTGTTCTCCCAGCTGATGAATTAACTTCGTCGAGTAAACAAATTTTCCTAATCTTTCTGTTCAAGCGCCATCTAC”, the binding signal is 0.86 RPM ratio (pull-down/input).

In the case of “GATGATTGTTCTCCCAGCTGATGAATTTGTATCCTCGAGTAAACAAATTTTCCTAATCTTTCTGTTCAAGCGCCATCTAC”, the binding signal is 1.34 RPM ratio (pull-down/input).

As to “GATGATTGTTCTCCCAGCTGATGAATTTGCCACATCGAGTAAACAAATTTTCCTAATCTTTCTGTTCAAGCGCCATCTAC”, the binding signal is 1.12 RPM ratio (pull-down/input).

Turning to “GATGATTGTTCTCCCAGCTGATGAATTCTCAATTTCGAGTAAACAAATTTTCCTAATCTTTCTGTTCAAGCGCCATCTAC”, the binding signal is 0.926 RPM ratio (pull-down/input).

With “GATGATTGTTCTCCCAGCTGATGAATTGTTCATGTCGAGTAAACAAATTTTCCTAATCTTTCTGTTCAAGCGCCATCTAC”, the binding signal is 1.07 RPM ratio (pull-down/input).

Take “GATGATTGTTCTCCCAGCTGATGAATTCATCCGTTCGAGTAAACAAATTTTCCTAATCTTTCTGTTCAAGCGCCATCTAC”: the binding signal was 0.869 RPM ratio (pull-down/input).

On to “GATGATTGTTCTCCCAGCTGATGAATTATTGCCCTCGAGTAAACAAATTTTCCTAATCTTTCTGTTCAAGCGCCATCTAC”, for which the binding signal is 1.08 RPM ratio (pull-down/input).

Consider “GATGATTGTTCTCCCAGCTGATGAATTCTCCAACTCGAGTAAACAAATTTTCCTAATCTTTCTGTTCAAGCGCCATCTAC”, for which the binding signal was 0.831 RPM ratio (pull-down/input).

On to “GATGATTGTTCTCCCAGCTGATGAATTAATCGTGTCGAGTAAACAAATTTTCCTAATCTTTCTGTTCAAGCGCCATCTAC”, for which the binding signal was 0.998 RPM ratio (pull-down/input).

Consider “GATGATTGTTCTCCCAGCTGATGAATTCTTAGAATCGAGTAAACAAATTTTCCTAATCTTTCTGTTCAAGCGCCATCTAC”, for which the binding signal is 0.879 RPM ratio (pull-down/input).

Turning to “GATGATTGTTCTCCCAGCTGATGAATTACTCCTCTCGAGTAAACAAATTTTCCTAATCTTTCTGTTCAAGCGCCATCTAC”, the binding signal was 1.05 RPM ratio (pull-down/input).

As for “GATGATTGTTCTCCCAGCTGATGAATTCCAAACGTCGAGTAAACAAATTTTCCTAATCTTTCTGTTCAAGCGCCATCTAC”, the binding signal was 0.797 RPM ratio (pull-down/input).

With “GATGATTGTTCTCCCAGCTGATGAATTACATCCGTCGAGTAAACAAATTTTCCTAATCTTTCTGTTCAAGCGCCATCTAC”, the binding signal was 1.11 RPM ratio (pull-down/input).

With “GATGATTGTTCTCCCAGCTGATGAATTTTGATCGTCGAGTAAACAAATTTTCCTAATCTTTCTGTTCAAGCGCCATCTAC”, the binding signal is 0.904 RPM ratio (pull-down/input).

As for “GATGATTGTTCTCCCAGCTGATGAATTAACTAGTTCGAGTAAACAAATTTTCCTAATCTTTCTGTTCAAGCGCCATCTAC”, the binding signal was 0.874 RPM ratio (pull-down/input).

As for “GATGATTGTTCTCCCAGCTGATGAATTAATCCTGTCGAGTAAACAAATTTTCCTAATCTTTCTGTTCAAGCGCCATCTAC”, the binding signal was 0.881 RPM ratio (pull-down/input).

As to “GATGATTGTTCTCCCAGCTGATGAATTATGGAATTCGAGTAAACAAATTTTCCTAATCTTTCTGTTCAAGCGCCATCTAC”, the binding signal was 0.941 RPM ratio (pull-down/input).

“GATGATTGTTCTCCCAGCTGATGAATTTGTAAAATCGAGTAAACAAATTTTCCTAATCTTTCTGTTCAAGCGCCATCTAC”: the binding signal was 1.24 RPM ratio (pull-down/input).

For “GATGATTGTTCTCCCAGCTGATGAATTGCGCGTCTCGAGTAAACAAATTTTCCTAATCTTTCTGTTCAAGCGCCATCTAC”, the binding signal was 1.06 RPM ratio (pull-down/input).

Regarding “GATGATTGTTCTCCCAGCTGATGAATTGTGAGCTTCGAGTAAACAAATTTTCCTAATCTTTCTGTTCAAGCGCCATCTAC”, the binding signal was 1 RPM ratio (pull-down/input).

“GATGATTGTTCTCCCAGCTGATGAATTGGATTCTTCGAGTAAACAAATTTTCCTAATCTTTCTGTTCAAGCGCCATCTAC”: the binding signal is 0.813 RPM ratio (pull-down/input).

As for “GATGATTGTTCTCCCAGCTGATGAATTTATGTCGTCGAGTAAACAAATTTTCCTAATCTTTCTGTTCAAGCGCCATCTAC”, the binding signal was 1.14 RPM ratio (pull-down/input).

Turning to “GATGATTGTTCTCCCAGCTGATGAATTCCAAAGCTCGAGTAAACAAATTTTCCTAATCTTTCTGTTCAAGCGCCATCTAC”, the binding signal is 0.716 RPM ratio (pull-down/input).

Turning to “GATGATTGTTCTCCCAGCTGATGAATTTCTATTCTCGAGTAAACAAATTTTCCTAATCTTTCTGTTCAAGCGCCATCTAC”, the binding signal is 0.816 RPM ratio (pull-down/input).

Consider “GATGATTGTTCTCCCAGCTGATGAATTTGGATACTCGAGTAAACAAATTTTCCTAATCTTTCTGTTCAAGCGCCATCTAC”, for which the binding signal is 1.07 RPM ratio (pull-down/input).

For the sequence “GATGATTGTTCTCCCAGCTGATGAATTCCCCCAATCGAGTAAACAAATTTTCCTAATCTTTCTGTTCAAGCGCCATCTAC”, the binding signal is 0.94 RPM ratio (pull-down/input).

For the sequence “GATGATTGTTCTCCCAGCTGATGAATTTCAAAACTCGAGTAAACAAATTTTCCTAATCTTTCTGTTCAAGCGCCATCTAC”, the binding signal was 0.849 RPM ratio (pull-down/input).

Consider “GATGATTGTTCTCCCAGCTGATGAATTGCTAGCTTCGAGTAAACAAATTTTCCTAATCTTTCTGTTCAAGCGCCATCTAC”, for which the binding signal is 0.984 RPM ratio (pull-down/input).

Take “GATGATTGTTCTCCCAGCTGATGAATTCCTCGCGTCGAGTAAACAAATTTTCCTAATCTTTCTGTTCAAGCGCCATCTAC”: the binding signal was 0.864 RPM ratio (pull-down/input).

With “GATGATTGTTCTCCCAGCTGATGAATTCTCGAGATCGAGTAAACAAATTTTCCTAATCTTTCTGTTCAAGCGCCATCTAC”, the binding signal is 0.774 RPM ratio (pull-down/input).

With “GATGATTGTTCTCCCAGCTGATGAATTCTCACCGTCGAGTAAACAAATTTTCCTAATCTTTCTGTTCAAGCGCCATCTAC”, the binding signal was 0.825 RPM ratio (pull-down/input).

Turning to “GATGATTGTTCTCCCAGCTGATGAATTTATAGCATCGAGTAAACAAATTTTCCTAATCTTTCTGTTCAAGCGCCATCTAC”, the binding signal is 1.29 RPM ratio (pull-down/input).

“GATGATTGTTCTCCCAGCTGATGAATTCAGGTCGTCGAGTAAACAAATTTTCCTAATCTTTCTGTTCAAGCGCCATCTAC”: the binding signal was 0.793 RPM ratio (pull-down/input).

Turning to “GATGATTGTTCTCCCAGCTGATGAATTTCCGGGCTCGAGTAAACAAATTTTCCTAATCTTTCTGTTCAAGCGCCATCTAC”, the binding signal is 0.767 RPM ratio (pull-down/input).

“GATGATTGTTCTCCCAGCTGATGAATTATAGACGTCGAGTAAACAAATTTTCCTAATCTTTCTGTTCAAGCGCCATCTAC”: the binding signal is 0.937 RPM ratio (pull-down/input).
